Experimental data reported in PubChem BioAssay AID1671194 (National Center for Advancing Translational Sciences (NCATS), 2021).
Among all 140,000 compounds or so, about 240 (0.17%) were called active. Inconclusive means that the source gave no clear call. Such entries were picked first, then a sample of the others. The call rests on the fitted dose curve; in most records, active means well fitted inhibition curve with a large enough effect; inconclusive means small, poorly fitted or top-dose-only effect; inactive means no such curve, though single readings can be large or run the other way. Potencies of inconclusive entries are doubtful fits and often do not repeat.

assay: Primary qHTS assay for inhibitors of alpha-synuclein gene (SNCA) expression; conditions: HEK-293 SNCA-luciferase knock-in, luminescence, 24 h; activity change, negative = inhibition: at 57.2 µM (top of the series) unless noted; further: nearly all actives have a fitted effect of over 45% in size;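 on activity change, negative = inhibition: plate controls were DMSO cells for no effect and cell-free wells for full effect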
Potency means the concentration at half of the fitted maximal effect; tags describe the fitted curve by direction and shape.

| SMILES | Potency | activity change, negative = inhibition |
| --- | --- | --- |
| COc1ccc(C(=O)N2CCCC(c3nc(CCOCC4CCCC4)no3)C2)cc1F (stereo not drawn) | inconclusive: 17.8 µM [inhibitor, single point] | – |
| COc1cccc(-c2ccccc2NC(=O)C2CCN(Cc3ccc(F)cc3)CC2)c1 | inconclusive: 17.8 µM [inhibitor, single point] | – |
| C[C@]1(CO)[C@H]2Cc3sc(NC(=O)c4ccc(F)cc4)nc3[C@@H](CC(=O)NC3CC3)[C@]2(C)CC[C@H]1O | inactive | – |
| COCc1nncn1C1CCN(S(=O)(=O)c2ccc(F)cc2F)CC1 | inactive | – |
| COC(=O)c1cc(C#N)c(N2CC[C@H](CO)[C@@H](O)C2)nc1C | inactive | – |
| Cc1ccc(C(=O)N2CCC3(CC2)NC(=O)N(c2ccccc2)N3)cc1 | inconclusive: 11.2 µM [inhibitor, partial curve] | – |
| O=C(C1CC1)N1CCC(c2noc(-c3ccncc3)n2)C1 (stereo not drawn) | inconclusive: 0.794 µM [inhibitor, full curve, poor fit] | – |
| COc1ccc(C2C=C(c3ccccc3)Nc3nc(NC(=O)/C=C/c4ccccc4Cl)nn32)cc1 (stereo not drawn) | inconclusive: 1.78 µM [inhibitor, full curve, poor fit] | – |
| Cc1cc(S(=O)(=O)N2CCC(n3cnnc3C(C)C)CC2)ccc1F | inconclusive: 12.6 µM [inhibitor, partial curve, poor fit] | – |
| Cc1ccn2c(Nc3ccc(C(C)C)cc3)c(-c3cccnc3)nc2c1 | inconclusive: 39.8 µM [inhibitor, single point] | – |
| COc1cc(CNCCOc2ccccc2)ccc1OCC(O)CN1CCOCC1 (stereo not drawn) | inconclusive: 44.7 µM [inhibitor, partial curve, poor fit] | – |
| CCc1nc2c(c(-c3ccc(Cl)cc3)n1)CN(S(=O)(=O)c1ccccc1)CC2 | inactive | – |
| Cc1ccc(NC(=O)CC2Sc3ccc(C(F)(F)F)cc3NC2=O)cc1 (stereo not drawn) | inconclusive: 2 µM [inhibitor, single point] | – |
| CN1CCN(C(=O)c2cc(-c3ccc(F)cc3)nc3c2cnn3C)CC1 | inconclusive: 25.1 µM [inhibitor, partial curve, poor fit] | – |
| COc1cccc(CC(=O)N2CCC3(CC2)OC(=O)N(Cc2ncccn2)C3(C)c2ccccc2)c1 (stereo not drawn) | inactive | – |
| Cc1ccc(-c2nc(C(=O)NCc3ccccc3Cl)c3n2CCCCC3)cc1 | inconclusive: 12.6 µM [inhibitor, partial curve] | – |
| Cc1ccc(-n2nc(C)c([C@H]3C=C[C@@H](O)C3)c2C)cc1Cl | inactive | – |
| COc1ccc(-c2cc(-c3ccccc3)nc(SCC(=O)Nc3ccccc3F)c2C#N)cc1 | inconclusive: 7.08 µM [inhibitor, single point] | – |
| COc1ccc(CCN2C(=O)c3[nH]nc(-c4ccccc4O)c3C2c2ccc(OC)c(OC)c2)cc1 (stereo not drawn) | inconclusive: 35.5 µM [inhibitor, single point] | – |
| Cc1oc2ccn(Cc3ccc(F)cc3)c(=O)c2c1C(=O)NC1CCCCCC1 | inactive | – |
| CN(C)c1cccc(-c2ncc3c(n2)OCCN(c2ccccc2)C3=O)c1 | inactive | – |

| SMILES | Potency | activity change, negative = inhibition |
| --- | --- | --- |
| CCOC(=O)c1noc2ncnc(Nc3cccc(OC)c3)c12 | inconclusive: 6.31 µM [inhibitor, single point] | – |
| Cc1ccc2c(C(=O)N3CCCCCC3)cc(NC(=O)C3CCC3)cc2n1 | inactive | – |
| Cc1cc(C)cc(C(=O)NCC(c2ccc(N(C)C)cc2)N2CCCC2)c1 (stereo not drawn) | inconclusive: 28.2 µM [inhibitor, single point] | – |
| O=C(NCCc1ccc(F)cc1)c1nc2cccnc2n(Cc2ccccc2)c1=O | inactive | – |
| COc1ccc(-c2[nH]nc3ncc(C(=O)NCC4CCOCC4)nc23)c(C)c1 | inconclusive: 56.2 µM [inhibitor, single point] | – |
| COc1ccc(-c2c(C)c3ccc(O)c(CN4CCCC(C)C4)c3oc2=O)cc1OC (stereo not drawn) | inconclusive: 2.51 µM [inhibitor, single point] | – |
| Cc1ccc(C)c(Nc2nnc(-c3ccc(C)c(S(=O)(=O)NCC4CCCO4)c3)c3ccccc23)c1 (stereo not drawn) | inconclusive: 39.8 µM [inhibitor, single point] | – |
| CCOc1ccc(N2C(=O)c3[nH]nc(-c4ccc(OC)cc4)c3C2c2cccs2)cc1 (stereo not drawn) | inconclusive: 31.6 µM [inhibitor, single point] | – |
| COc1cccc(C(=O)N2CC[C@](O)(c3ccccc3)[C@H](N(C)C)C2)c1 | – | inconclusive: -30.8% [inhibitor] |
| CC1=C[C@@H](CN2C(=O)C(C)=C(C)C2=O)[C@H](C(C)C)C[C@H]1Cc1nc2ccc(C)cc2[nH]1 | inconclusive: 14.1 µM [inhibitor, partial curve, poor fit] | – |
| NC(=O)C1(C(=O)N2CCC(n3nccc3NC(=O)c3ccccc3)CC2)CC1 | inactive | – |
| COc1cccc(NC(=O)c2ccc3c(c2)NC(C)(COc2ccc4[nH]ccc4c2)CO3)c1 (stereo not drawn) | inconclusive: 22.4 µM [inhibitor, single point] | – |
| COc1cc(Nc2nc(SCc3ccccc3Cl)nc3ccccc23)cc(OC)c1 | inconclusive: 22.4 µM [inhibitor, single point] | – |
| CCOCc1cc(CN2CCN(c3ccccc3OC)CC2)c(O)c2ncccc12 | inconclusive: 3.98 µM [inhibitor, full curve, poor fit] | – |
| COc1ccc(-c2noc(Nc3ccc(OC)c(OC)c3)n2)cc1 | inactive | – |
| Cc1ccc(C)c(C(=O)N2CCN(c3cc(-c4ccc(Cl)cc4)[nH]n3)CC2)c1 | inconclusive: 39.8 µM [inhibitor, single point] | – |
| CC(C)=CCC1(CO)CCCN(C(=O)c2cccn2C2CC2)C1 (stereo not drawn) | inconclusive: 5.62 µM [inhibitor, single point] | – |
| O=C(c1cnn(-c2ccc(F)cc2)c1-n1cccc1)N1CCN(c2ccc(Cl)cc2)CC1 | inconclusive: 39.8 µM [inhibitor, single point] | – |
| Cc1ccc(C)c(C(=O)N(C)CC2CCOCC2)c1 | inconclusive: 8.91 µM [inhibitor, single point] | – |
| O=C1CCc2cc(S(=O)(=O)NCc3ccccc3Cl)cc3c2N1CC3 | inconclusive: 22.4 µM [inhibitor, partial curve, poor fit] | – |
| COc1ccc(CCC(=O)N2CCC3(CC2)CC(CC(=O)N2CCOCC2)CCO3)cc1 (stereo not drawn) | inactive | – |

| SMILES | Potency | activity change, negative = inhibition |
| --- | --- | --- |
| COC[C@@H]1CN(C(=O)CN2CCCC2=O)C[C@H]1c1ccncc1 | inconclusive: 5.01 µM [inhibitor, partial curve, poor fit] | – |
| COCCN1C(=O)[C@@H]2C[C@@H](CN2Cc2ccccc2)Oc2ccccc21 | inactive | – |
| COc1cc2c(cc1OC)C(C[C@H]1CN(S(=O)(=O)c3cccs3)CC[C@H]1CC(=O)O)=NCC2 | inactive | – |
| COc1ccc2cc3c(N)nn(C(=O)c4ccccc4Cl)c3nc2c1 | inconclusive: 1.58 µM [inhibitor, full curve, poor fit] | – |
| Cc1nc(C)c(C(=O)N2CCn3c(nnc3[C@@H]3C[C@@H](O)CN3Cc3ccccc3)C2)s1 | inconclusive: 31.6 µM [inhibitor, single point] | – |
| O=C(c1ccccn1)N1CC(Oc2ccc(F)cc2F)C1 | inactive | – |
| Cc1ccc(C2NC(=O)N(CC(=O)Nc3cc(F)ccc3F)C3=C2C(=O)OC3)cc1 (stereo not drawn) | inconclusive: 1.41 µM [inhibitor, full curve] | – |
| CCOc1cccc(CNC(=O)c2ccc(N3CCCC3)c(NC(=O)NCc3ccccc3)c2)c1 | inconclusive: 31.6 µM [inhibitor, partial curve, poor fit] | – |
| COc1ccc(Cl)cc1NC(=O)Cn1ccn(-c2cc(C)cc(C)c2)c(=O)c1=O | inconclusive: 25.1 µM [inhibitor, single point] | – |
| Cc1cc(C2CCCN2C(=O)c2ccc(-c3ccccc3Cl)o2)no1 (stereo not drawn) | inactive | – |
| CCCN(CC1CCOC1)C(=O)c1ccc(Br)o1 (stereo not drawn) | inconclusive: 3.16 µM [inhibitor, single point] | – |
| COc1ccc(C2c3c(n(C)c4ccccc34)C(=O)N2CC(=O)Nc2cccc(Cl)c2)cc1 (stereo not drawn) | inconclusive: 25.1 µM [inhibitor, single point] | – |
| CSc1ccccc1OCc1cc(C(=O)NCCN2CCCCC2CO)no1 (stereo not drawn) | inconclusive: 39.8 µM [inhibitor, single point] | – |
| CCN1c2cc(C(=O)NCc3ccccc3OC)ccc2C(=O)N2CCCCCC21 (stereo not drawn) | inconclusive: 28.2 µM [inhibitor, partial curve, poor fit] | – |
| COc1ccc2[nH]c3c(c2c1)CCNC31CCN(C(=O)Cc2cccc(F)c2)CC1 | inconclusive: 39.8 µM [inhibitor, single point] | – |
| c1cc(-c2nc3c([nH]2)CNCC3)c2cccnc2c1 | inconclusive: 20 µM [inhibitor, partial curve, poor fit] | – |
| COc1ccc(OC)c([S+](=O)([O-])c2nnn3c2nc(N2CCOCC2)c2ccccc23)c1 | inactive | – |
| COCCN1CC(CO)C2(CCN(C(=O)Cc3cccc(F)c3)CC2)C1 (stereo not drawn) | inconclusive: 5.01 µM [inhibitor, full curve, poor fit] | – |
| COc1ccccc1NC(=O)C1=C(C)Nc2nc(SCc3ccccc3)nn2C1c1cccc(O)c1 (stereo not drawn) | inconclusive: 25.1 µM [inhibitor, single point] | – |
| CCn1nc(C)c(-c2cc(C(=O)N3CCC(CCOc4ccccc4OC)C3)no2)c1C (stereo not drawn) | inconclusive: 39.8 µM [inhibitor, single point] | – |
| CCNc1cc(N2CCC(CCC(=O)NCc3ccc(OC)cc3)CC2)ncn1 | inconclusive: 6.31 µM [inhibitor, partial curve, poor fit] | – |
